Data on 43 compounds can be found in article PMC4336329 (PLoS ONE, 2015).

About 2,200 (0.71%) of roughly 310,000 compounds showed an effect of 50% or more. Effects have a minus sign here. The list shows a part of the results.

Sequence of human ether-à-go-go-related gene (hERG) potassium channel (Q12809 whole entry, looked up): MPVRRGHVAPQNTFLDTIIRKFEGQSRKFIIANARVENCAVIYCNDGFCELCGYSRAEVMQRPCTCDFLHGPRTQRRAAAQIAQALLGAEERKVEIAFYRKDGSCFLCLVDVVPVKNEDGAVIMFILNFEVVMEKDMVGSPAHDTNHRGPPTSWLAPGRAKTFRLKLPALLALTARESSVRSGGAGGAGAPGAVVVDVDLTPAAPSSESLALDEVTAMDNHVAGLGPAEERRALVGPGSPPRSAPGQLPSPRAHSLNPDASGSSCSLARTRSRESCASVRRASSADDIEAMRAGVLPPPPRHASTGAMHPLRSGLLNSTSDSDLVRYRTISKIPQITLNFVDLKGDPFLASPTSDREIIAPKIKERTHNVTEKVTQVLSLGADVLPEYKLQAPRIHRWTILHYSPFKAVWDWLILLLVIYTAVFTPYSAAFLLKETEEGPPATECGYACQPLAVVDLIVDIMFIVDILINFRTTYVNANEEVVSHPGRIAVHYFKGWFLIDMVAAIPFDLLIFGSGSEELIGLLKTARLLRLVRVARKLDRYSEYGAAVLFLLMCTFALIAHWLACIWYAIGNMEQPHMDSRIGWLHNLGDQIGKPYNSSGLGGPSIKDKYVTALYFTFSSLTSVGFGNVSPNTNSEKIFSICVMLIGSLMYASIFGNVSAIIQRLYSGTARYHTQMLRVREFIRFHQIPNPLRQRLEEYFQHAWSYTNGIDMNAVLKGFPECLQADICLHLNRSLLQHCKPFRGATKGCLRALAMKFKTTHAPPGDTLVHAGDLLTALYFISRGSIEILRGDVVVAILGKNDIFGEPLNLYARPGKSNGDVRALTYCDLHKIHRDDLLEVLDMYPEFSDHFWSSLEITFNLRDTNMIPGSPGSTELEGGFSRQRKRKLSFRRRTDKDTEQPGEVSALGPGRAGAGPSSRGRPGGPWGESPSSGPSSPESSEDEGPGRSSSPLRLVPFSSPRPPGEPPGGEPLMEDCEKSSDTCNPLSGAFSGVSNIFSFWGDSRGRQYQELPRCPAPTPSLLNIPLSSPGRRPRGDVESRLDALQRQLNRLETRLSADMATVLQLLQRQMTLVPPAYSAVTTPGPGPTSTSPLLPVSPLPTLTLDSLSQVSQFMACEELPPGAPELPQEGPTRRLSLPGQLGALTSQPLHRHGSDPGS

The experiment has as its target human ether-à-go-go-related gene (hERG) potassium channel (human, UniProt Q12809). Kind of experiment: primary screen, population patch clamp on CHO cells stably expressing hERG.
Take `COC(=O)CNc1nc(Cl)nc(Nc2ccc(C)cc2)n1`: the “hERG current change (%, negative = inhibition) at 1uM” value is given as 19.5%.
Under `COc1ccc(CC2(C)OC(c3ccc(Cl)cc3)=NN2C(C)=O)cc1` (stereo not shown) stands 7.04%; under `COc1cc(OC)c(C(=O)OCC(=O)Nc2ccccc2Cl)cc1OC`, 7.47%.
Under `O=C(/C=C/c1ccccc1)NC(NC(=S)Nc1cc(Cl)ccc1Cl)C(Cl)(Cl)Cl` (stereo not shown) stands 11.1%; under `CSc1nsc(/C=C/Nc2ccc(F)cc2F)c1C#N`, 4.7%.
On to `CC(Sc1nnnn1-c1ccc(O)cc1)c1nc2ccccc2c(=O)[nH]1` (stereo not shown), for which the “hERG current change (%, negative = inhibition) at 1uM” value is on record as 3.95%.
Under `Cc1cc(/C=N/n2cnnc2)c(C)n1-c1ccc(C(=O)O)cc1` stands -4.41%; under `Cc1cc(OCC(=O)Nc2ccc(N3CCN(C(=O)c4ccco4)CC3)cc2)cc(C)c1Cl`, 3.95%; under `COc1ccc2nc(SCC(=O)C(C)(C)C)[nH]c2c1`, 4.48%.
In the case of `O=C(NC1CCCCC1)NC1(C(=O)N2CCN3CCCC3C2)CCCCC1` (stereo not shown) it was 14%; in that of `CCOc1ccc(/C=C2\SC(=S)N(CC(=O)Nc3ccccn3)C2=O)cc1`, 6.28%.
Regarding `C[C@@H]1O[C@@H](O[C@H]2C[C@@H](O)[C@]3(CO)[C@H]4[C@H](O)C[C@]5(C)[C@@H](C6COC(=O)C6)CC[C@]5(O)[C@@H]4CC[C@]3(O)C2)[C@H](O)[C@H](O)[C@H]1O` (stereo partly shown), the “hERG current change (%, negative = inhibition) at 1uM” value stood at 9.23%.
Under `O=C(NCCCN1CCCC1=O)c1cccc(S(=O)(=O)Nc2ccc(F)cc2)c1` stands -3.76%; under `O=C(Nc1cccc(-c2ccc(N3CCOCC3)nn2)c1)c1ccccc1Cl`, 30%.
In the case of `C=C(C)n1c(=O)n(Cc2ccccc2C)c2ccccc21` it was 10.8%; in that of `O=C1Nc2ccc(Br)cc2C1(O)c1ccc(F)cc1` (stereo not shown), 12.6%; in that of `O=[N+]([O-])c1cccc(-c2nc(Oc3ccc(Cl)cc3)c3ccccc3n2)c1`, 10.3%.
For the compound `O=C(C1=C[C@H](c2csc3ccccc23)C[C@H](OCc2ccc(CO)cc2)O1)N1CCN(Cc2ccc3c(c2)OCO3)CC1`, the “hERG current change (%, negative = inhibition) at 1uM” value is reported as 17.3%.
In the case of `O=C(O)CCCCCNCc1ccncc1` it was -4.99%; in that of `CCCCNC(=O)Nc1c(C(=O)OCC)[nH]c2ccccc12`, 7.32%.
Under `C#CCN1C(=O)C(O)(CC(=O)/C=C/c2ccco2)c2ccccc21` (stereo not shown) stands 9.21%.
Regarding `c1ccc(-c2nnc(SCc3nc4ccccc4[nH]3)n2Cc2ccco2)cc1`, the “hERG current change (%, negative = inhibition) at 1uM” value is recorded as 3.01%.
In the case of `O=C(NNC(=S)Nc1ccc(F)cc1)c1cccc([N+](=O)[O-])c1` it was 14.2%; in that of `COc1cc(NC(=O)C/C(C)=N/NC(=O)c2cccc(O)c2)c(OC)cc1Cl`, -0.491%.
Under `Cc1ccc(-n2ncc3c2CC(C)(C)CC3NC(=O)c2cc[n+]([O-])cc2)cc1` (stereo not shown) stands -62.7%; under `CCCN(CC1CC1)C(=O)COC(=O)c1oc2ccc(OCC)cc2c1C`, 2.45%; under `O=C(NCC1OCCCN1S(=O)(=O)c1ccc(F)cc1)C(=O)NC1CCCC1` (stereo not shown), -3.88%.
In the case of `COc1cc(C(C(=O)NC(C)(C)C)N(C(=O)CNC(=O)c2cccs2)c2ccccc2)cc(OC)c1OC` (stereo not shown) it was 16%; in that of `CCCSc1nnc(Cc2cc(=O)[nH]c(=O)[nH]2)n1-c1cc(C)ccc1C`, 10.6%.
As for `Cc1cccc(OCCNc2ccc(C(F)(F)F)cc2[N+](=O)[O-])c1`, the “hERG current change (%, negative = inhibition) at 1uM” value amounted to 5.96%.
In the case of `CCCOc1cccc(C(=O)NCCNC(=O)c2cnccn2)c1` it was 13.9%; in that of `COc1ccc(C(C)=O)cc1CN(c1ccccc1OC)S(=O)(=O)c1cccs1`, 11.4%.
In the case of `Cc1cc(C)nc(SCc2cnc(C)nc2N)n1` it was 20.6%; in that of `COc1ccc(OC)c(NC(=O)c2ccc(N3C(=O)C4CC=C(C)CC4C3=O)cc2)c1` (stereo not shown), 16.7%; in that of `Cc1nnc(SCc2ccc([N+](=O)[O-])cc2)o1`, 5.15%.
Under `C=CCN(c1ccc(C(=O)Nc2cc(C)cc(C)c2)cc1)S(C)(=O)=O` stands 3.91%; under `Cc1c(NC(=O)COc2ccc3ccc(=O)oc3c2)c(=O)n(-c2ccccc2)n1C`, 10.2%; under `Cc1c(C(=O)N2CCC(C)CC2)oc2ccc3c(c12)C(O)CC1(CCCCC1)O3` (stereo not shown), 16.4%.
With `COC(=O)Cc1c(C)nc2nc(NCc3cccc([N+](=O)[O-])c3)[nH]n2c1=O`, the “hERG current change (%, negative = inhibition) at 1uM” value is given as -2.47%.
Under `CCc1ccc(NC2Nc3cc(C)nn3S2)cc1` (stereo not shown) stands 6.72%.
Under `Cc1cccc(C(=O)Nc2cccc(NC(=O)c3ccccc3)c2)c1` stands 5.84%; under `N=C1C(c2ccccc2)=C(O)CN1c1cccc(S(=O)(=O)N2CCCCC2)c1`, 10.2%.
As to `Cc1c(N=Cc2cccnc2)c(=O)n(-c2ccccc2)n1C`, the “hERG current change (%, negative = inhibition) at 1uM” value was 9.26%.
